Measurements published in the supplement of paper PMC12067093, “Discovery and optimisation of a covalent ligand for TRIM25 and its application to targeted protein ubiquitination” (Chemical Science, 2025).
Of roughly 21,000 targets only a part is listed; those with the largest changes were picked by preference.

Compound: Cc1cc(ccc1-c1ccccc1)C(=O)N1CCCN(CC1)C(=O)CCl [compound 10]
Assay: probe-labelled cysteine peptide fold change vs DMSO (competition) (log2 fold change); higher = less target engagement (more negative = stronger competition)
Conditions: 10 µM; THP-1; incubation time: 4 h
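Further: competitive profiling in live THP-1 cells: cysteine peptides tagged with an iodoacetamide desthiobiotin (IA-DTB) probe, intensity after compound treatment relative to DMSO-treated cells.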

UniProt O43818, sequence (O43818 whole entry, looked up): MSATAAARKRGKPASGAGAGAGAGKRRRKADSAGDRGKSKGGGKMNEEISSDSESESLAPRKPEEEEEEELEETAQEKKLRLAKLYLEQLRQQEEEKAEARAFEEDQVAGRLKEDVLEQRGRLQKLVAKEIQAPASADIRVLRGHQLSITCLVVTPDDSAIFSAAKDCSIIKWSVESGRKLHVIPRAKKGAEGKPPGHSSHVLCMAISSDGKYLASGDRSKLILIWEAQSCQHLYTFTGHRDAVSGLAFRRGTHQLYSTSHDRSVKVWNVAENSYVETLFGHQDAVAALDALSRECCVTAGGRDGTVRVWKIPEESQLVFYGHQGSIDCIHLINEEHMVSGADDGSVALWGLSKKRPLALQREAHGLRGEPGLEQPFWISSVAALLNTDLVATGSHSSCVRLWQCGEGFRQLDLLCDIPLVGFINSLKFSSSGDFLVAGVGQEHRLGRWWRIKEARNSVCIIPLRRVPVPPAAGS
UniProt P50453, sequence (P50453 whole entry): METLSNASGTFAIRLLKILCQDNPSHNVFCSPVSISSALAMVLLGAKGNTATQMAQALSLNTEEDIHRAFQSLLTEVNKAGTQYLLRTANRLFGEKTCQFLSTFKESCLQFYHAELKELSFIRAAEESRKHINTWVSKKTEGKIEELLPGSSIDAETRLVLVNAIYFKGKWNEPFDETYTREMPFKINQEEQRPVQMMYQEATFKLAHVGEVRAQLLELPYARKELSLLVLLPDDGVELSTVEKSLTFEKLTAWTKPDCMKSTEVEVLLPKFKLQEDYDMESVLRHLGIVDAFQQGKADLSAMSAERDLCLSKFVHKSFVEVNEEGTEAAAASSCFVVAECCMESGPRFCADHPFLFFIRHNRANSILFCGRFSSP
UniProt Q9Y3Z3, sequence (Q9Y3Z3 whole entry, looked up): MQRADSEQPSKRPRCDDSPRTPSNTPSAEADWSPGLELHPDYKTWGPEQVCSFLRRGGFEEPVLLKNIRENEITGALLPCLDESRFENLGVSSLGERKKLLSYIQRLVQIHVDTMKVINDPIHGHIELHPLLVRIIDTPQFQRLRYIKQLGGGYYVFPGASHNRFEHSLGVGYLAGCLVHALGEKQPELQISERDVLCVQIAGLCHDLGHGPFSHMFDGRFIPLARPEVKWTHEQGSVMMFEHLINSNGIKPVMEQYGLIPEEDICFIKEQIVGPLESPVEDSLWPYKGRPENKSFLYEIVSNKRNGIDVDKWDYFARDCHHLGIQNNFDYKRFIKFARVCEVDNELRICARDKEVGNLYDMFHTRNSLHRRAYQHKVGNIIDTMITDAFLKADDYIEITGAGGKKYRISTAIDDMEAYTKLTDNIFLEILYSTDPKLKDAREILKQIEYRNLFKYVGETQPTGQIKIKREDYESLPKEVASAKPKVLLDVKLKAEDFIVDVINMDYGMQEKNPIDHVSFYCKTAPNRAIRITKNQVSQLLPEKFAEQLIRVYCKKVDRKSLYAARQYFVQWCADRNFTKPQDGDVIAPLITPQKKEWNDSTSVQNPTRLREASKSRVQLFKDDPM
UniProt O75818, sequence (O75818 whole entry, looked up): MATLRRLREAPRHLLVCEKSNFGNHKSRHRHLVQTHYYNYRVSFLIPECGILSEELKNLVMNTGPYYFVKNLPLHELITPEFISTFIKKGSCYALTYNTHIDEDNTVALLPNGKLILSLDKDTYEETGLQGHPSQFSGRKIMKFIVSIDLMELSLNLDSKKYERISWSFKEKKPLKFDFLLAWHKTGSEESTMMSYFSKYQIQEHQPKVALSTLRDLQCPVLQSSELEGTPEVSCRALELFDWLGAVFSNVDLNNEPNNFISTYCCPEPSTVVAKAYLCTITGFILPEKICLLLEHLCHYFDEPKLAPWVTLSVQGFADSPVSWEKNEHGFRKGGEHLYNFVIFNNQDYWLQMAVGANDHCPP
UniProt Q8WWI5, sequence (Q8WWI5 whole entry, looked up): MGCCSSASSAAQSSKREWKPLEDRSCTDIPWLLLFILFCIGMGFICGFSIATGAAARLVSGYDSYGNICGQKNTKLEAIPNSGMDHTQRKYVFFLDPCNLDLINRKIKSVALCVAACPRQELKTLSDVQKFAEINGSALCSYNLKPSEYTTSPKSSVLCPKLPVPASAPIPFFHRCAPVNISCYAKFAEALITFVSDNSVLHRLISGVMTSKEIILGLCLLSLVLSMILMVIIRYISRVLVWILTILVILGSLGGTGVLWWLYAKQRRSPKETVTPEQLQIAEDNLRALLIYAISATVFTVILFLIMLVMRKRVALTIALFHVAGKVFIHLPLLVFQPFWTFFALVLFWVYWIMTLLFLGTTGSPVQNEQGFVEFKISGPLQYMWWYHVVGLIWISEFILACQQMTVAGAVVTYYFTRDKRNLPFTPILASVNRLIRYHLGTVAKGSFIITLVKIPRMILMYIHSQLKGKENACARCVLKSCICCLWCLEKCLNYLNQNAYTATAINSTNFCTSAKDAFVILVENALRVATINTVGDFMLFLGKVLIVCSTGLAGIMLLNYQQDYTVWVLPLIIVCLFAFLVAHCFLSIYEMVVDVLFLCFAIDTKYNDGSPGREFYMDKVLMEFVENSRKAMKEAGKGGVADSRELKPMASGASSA
UniProt A6NKF1, sequence (A6NKF1 whole entry, looked up): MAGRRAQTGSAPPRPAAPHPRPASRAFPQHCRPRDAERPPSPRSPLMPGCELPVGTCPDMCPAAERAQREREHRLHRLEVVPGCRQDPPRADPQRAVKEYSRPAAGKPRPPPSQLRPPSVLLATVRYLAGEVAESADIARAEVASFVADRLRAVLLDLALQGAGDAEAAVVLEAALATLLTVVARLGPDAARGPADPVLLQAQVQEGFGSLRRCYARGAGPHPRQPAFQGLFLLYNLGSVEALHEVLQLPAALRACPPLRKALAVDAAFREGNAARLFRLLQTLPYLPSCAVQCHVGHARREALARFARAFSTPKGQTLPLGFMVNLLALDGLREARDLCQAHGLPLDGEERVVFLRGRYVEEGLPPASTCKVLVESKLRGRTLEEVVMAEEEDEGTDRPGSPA
UniProt Q7Z7L1, sequence (Q7Z7L1 whole entry, looked up): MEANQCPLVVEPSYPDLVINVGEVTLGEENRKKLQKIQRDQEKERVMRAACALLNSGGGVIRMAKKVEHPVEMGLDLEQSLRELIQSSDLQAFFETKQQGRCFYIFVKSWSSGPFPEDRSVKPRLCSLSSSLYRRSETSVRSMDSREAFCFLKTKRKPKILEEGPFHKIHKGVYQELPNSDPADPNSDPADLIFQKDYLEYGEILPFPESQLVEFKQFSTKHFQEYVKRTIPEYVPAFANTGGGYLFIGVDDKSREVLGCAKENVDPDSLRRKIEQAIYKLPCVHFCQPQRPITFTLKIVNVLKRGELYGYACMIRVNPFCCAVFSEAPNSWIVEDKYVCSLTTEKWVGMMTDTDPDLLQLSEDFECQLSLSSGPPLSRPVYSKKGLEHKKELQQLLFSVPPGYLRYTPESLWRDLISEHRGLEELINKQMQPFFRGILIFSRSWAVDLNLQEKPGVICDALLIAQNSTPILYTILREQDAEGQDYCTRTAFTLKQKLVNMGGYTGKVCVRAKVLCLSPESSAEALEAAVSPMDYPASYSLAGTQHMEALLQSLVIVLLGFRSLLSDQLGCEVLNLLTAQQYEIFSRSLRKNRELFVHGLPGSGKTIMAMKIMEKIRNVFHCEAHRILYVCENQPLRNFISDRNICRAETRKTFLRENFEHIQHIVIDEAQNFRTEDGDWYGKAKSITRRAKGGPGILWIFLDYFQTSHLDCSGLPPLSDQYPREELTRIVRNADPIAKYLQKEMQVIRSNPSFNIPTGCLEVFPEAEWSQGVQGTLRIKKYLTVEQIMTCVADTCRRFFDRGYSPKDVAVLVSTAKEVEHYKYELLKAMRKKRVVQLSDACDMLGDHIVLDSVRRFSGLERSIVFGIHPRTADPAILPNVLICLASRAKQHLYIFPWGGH
UniProt Q9UQE7, sequence (Q9UQE7 whole entry, looked up): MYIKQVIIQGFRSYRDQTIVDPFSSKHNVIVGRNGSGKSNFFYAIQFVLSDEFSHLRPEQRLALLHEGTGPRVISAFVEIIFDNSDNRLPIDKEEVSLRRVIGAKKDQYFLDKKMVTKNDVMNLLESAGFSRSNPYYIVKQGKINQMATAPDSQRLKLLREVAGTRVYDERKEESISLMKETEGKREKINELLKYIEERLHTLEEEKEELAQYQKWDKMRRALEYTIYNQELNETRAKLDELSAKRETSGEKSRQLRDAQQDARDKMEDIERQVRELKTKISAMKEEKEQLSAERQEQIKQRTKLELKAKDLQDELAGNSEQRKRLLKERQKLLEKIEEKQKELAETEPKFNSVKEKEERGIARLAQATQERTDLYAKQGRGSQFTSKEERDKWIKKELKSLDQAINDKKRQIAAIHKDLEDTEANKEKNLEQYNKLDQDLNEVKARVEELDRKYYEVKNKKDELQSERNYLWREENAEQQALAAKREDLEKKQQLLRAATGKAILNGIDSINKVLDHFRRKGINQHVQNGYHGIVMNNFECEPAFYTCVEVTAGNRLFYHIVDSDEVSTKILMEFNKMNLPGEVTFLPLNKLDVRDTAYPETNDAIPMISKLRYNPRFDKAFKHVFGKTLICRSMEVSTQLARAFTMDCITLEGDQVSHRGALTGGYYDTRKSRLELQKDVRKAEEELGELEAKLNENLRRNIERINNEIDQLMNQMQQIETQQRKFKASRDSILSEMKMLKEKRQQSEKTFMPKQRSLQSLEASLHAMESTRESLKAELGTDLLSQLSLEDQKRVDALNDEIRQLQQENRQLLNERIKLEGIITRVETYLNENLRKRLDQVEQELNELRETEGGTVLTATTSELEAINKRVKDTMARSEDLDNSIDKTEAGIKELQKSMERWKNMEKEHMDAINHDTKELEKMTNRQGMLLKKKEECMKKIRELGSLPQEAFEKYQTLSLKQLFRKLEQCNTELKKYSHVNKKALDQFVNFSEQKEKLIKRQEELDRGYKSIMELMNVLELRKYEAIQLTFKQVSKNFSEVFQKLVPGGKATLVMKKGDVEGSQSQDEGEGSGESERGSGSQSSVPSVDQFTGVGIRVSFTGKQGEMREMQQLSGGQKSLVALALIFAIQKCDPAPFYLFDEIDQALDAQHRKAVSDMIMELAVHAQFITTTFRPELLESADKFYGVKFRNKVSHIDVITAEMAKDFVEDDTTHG

Target | probe-labelled cysteine peptide fold change
SMC3_Q9UQE7_972_LEQCNTELK (UniProt Q9UQE7) | 0.165
SMARCAD1_Q9H4L7_407_ILHFLQDASIGELTLIPQCSQK (UniProt Q9H4L7) | 0.141
SAMHD1_Q9Y3Z3_266_WTHEQGSVMMFEHLINSNGIKPVMEQYGLIPEEDICFIK (UniProt Q9Y3Z3) | -0.168
SERPINB9_P50453_259_LTAWTKPDCMK (UniProt P50453) | -0.11
SAC3D1_A6NKF1_290_LLQTLPYLPSCAVQCHVGHAR (UniProt A6NKF1) | -0.0451
RPP40_O75818_235_DLQCPVLQSSELEGTPEVSCR (UniProt O75818) | 0.963
SLC44A1_Q8WWI5_98_KYVFFLDPCNLDLINR (UniProt Q8WWI5) | -0.0775
SAAL1_Q96ER3_144_NLGQVLLHCLYDSDPPTLLETSR (UniProt Q96ER3) | 0.0958
RRP9_O43818_460_NSVCIIPLR (UniProt O43818) | 0.031
SAE1_Q9UBE0_214_VVFCPVK (UniProt Q9UBE0) | -0.0949
SLC25A10_Q9UBX3_69_TDGILALYSGLSASLCR (UniProt Q9UBX3) | -0.000955
SETX_Q7Z333_688_LEDHLLAGSCLK (UniProt Q7Z333) | -0.212
SMS_P52788_256_TCGDVLDNLKGDCYQVLIEDCIPVLKR (UniProt P52788) | -0.182
RNF213_Q63HN8_700+701_TYTWLGALPVLHCCMELAPR (UniProt Q63HN8) | -0.224
SLFN11_Q7Z7L1_150_EAFCFLK (UniProt Q7Z7L1) | -0.294
